In the RNAGym collection of RNA variant scans (doi:10.1073/pnas.2313332121):
Variants at the background level are over-represented here.

B1: TPR 5TU (parent)
chain: GGAUCUUCUCGAUCUAACAAAAAAGACAAAUCUGCCACAAAGCUUGAGAGCAUCUUCGGAUGCAGAGGCGGCAGCCUUCGGUGGCGCGAUAGCGCCAACGUUCUCAACUAUGACACGCAAAACGCGUGCUCCGUUGAAUGGAGUUUAUCAUG

Variants of: B1
Experiment: polymerase ribozyme fitness, log enrichment relative to wild type (log ratio); higher = more active; in vitro selection for triplet polymerase activity
How it was run: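 Mutant libraries of both subunits of a heterodimeric triplet polymerase ribozyme were PCR-built, transcribed, and selected once in triplicate, with frozen incubation at −7 °C and capture of gel-excised extended constructs on streptavidin beads before RT-PCR. Illumina sequencing of input and output libraries was filtered to genotypes with ≥10 input reads and ≥1 read per output. Fitness is the logarithm of genotype enrichment over wild-type enrichment, using inverse-variance-weighted replicate averages. The logarithm is base 2.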

Row | Variant | polymerase ribozyme fitness (log ratio)
1 | U4G A19U U33A A40C C95U U135G | ≤ -4.2
2 | C5G A21C A29U C51A C85U C87U U139G | ≤ -4.2
3 | C5A A20U A28U A30C C85A C125U | ≤ -4.2
4 | C5G A28C A49C G83A A97C C99A | ≤ -4.2
5 | U4G U9G A22C G62C G88A C95G G117U A122G A137C | ≤ -4.2
6 | C5G A47U A52U C69U G94A C131U | ≤ -4.2
7 | U4G A29C G65U G71A C76U C108A U134G | ≤ -4.2
8 | C5G A39G U56A A60C C63A G84U G94U U134C | ≤ -4.2
9 | U4G G84U G88A | ≤ -4.2
10 | C5G C32A C57U C99U | ≤ -4.2
11 | C5G C14G A30C C54A G65C C85G C93G C116G | ≤ -4.2
12 | C5G C54G U56G C95U C125U C129A G133U | ≤ -4.2
13 | U4G C5G A16C G25U A28G A52C C54U G94C U104G G128C | ≤ -4.2
14 | C5G C87G C96A A110G | ≤ -4.2
15 | C5G A22G U45A C87U A89U C95U U146C | ≤ -4.2
16 | U4G G42C C76G U90C C93G A113C | ≤ -4.2
17 | C5A G80A G83U G124C U139C | ≤ -4.2
18 | U4G A23U A52G G70C G86U A89G A106G | ≤ -4.2
19 | C5A G46C A66U C93U A122G | ≤ -4.2
20 | U4G A41C C69A C79G G92A | ≤ -4.2
21 | C5A C38G A41U U55A C85A A91G A110G G126A | ≤ -4.2

Row | Variant | polymerase ribozyme fitness (log ratio)
22 | U4G A37U G81A C99A A106C U127G | ≤ -4.2
23 | U4G U56G U144A | -1.19
24 | C5A A24G A28G A29U G67U G92A C108G C116A U127G G140U U145G | ≤ -4.2
25 | C5G C93A A110G U135A G152U | ≤ -4.2
26 | U4G U7A C27A G48C G88U G126U U144G | ≤ -4.2
27 | C5A A26C A30U A52C G70A G86C | ≤ -4.2
28 | C5G A29G C93U C108G G136U | ≤ -4.2
29 | C5A A16C C72A G83C G84C C85A A121C C125G G136A | ≤ -4.2
30 | C5G A21U G58C U78C C87U C96U A115U G141U | ≤ -4.2
31 | C5G A19U A24U G50C U78C A97G | ≤ -4.2
32 | C5G A37C C38A C93G C99A G126U | ≤ -4.2
33 | C5G A52G A60G C85A C95G A97G U102A C125A | ≤ -4.2
34 | C5G A16G A52C G81A G84U U101G C105A C118U | ≤ -4.2
35 | U4G A21C G58U G88C G112C A119U U151G | ≤ -4.2
36 | C5A A49C C85G A89G U146C | ≤ -4.2
37 | C5G A21U A29U C32U U53A A60G G74U | ≤ -4.2
38 | C5G A41U U55A G84A A147C | ≤ -4.2
39 | C5G G50C G58A C96U G124U | ≤ -4.2
40 | U4G C32A C75U G84U U134A | ≤ -4.2
41 | U4G C35G C95G U134A G136U | -4.16
42 | C5A C54U A73G A119G G136A | -0.371

Row | Variant | polymerase ribozyme fitness (log ratio)
43 | C5A A21G A41C A64U C85A C96U A110U G117U | ≤ -4.2
44 | U4G C10U U13C A19U C32U U55C C76A G94U C105U C149U | ≤ -4.2
45 | C5A A20G A49C C85U G88C A115G A120G A137G | ≤ -4.2
46 | C5G G48A U61G G70C G83C G88C C131G A142C G143A | ≤ -4.2
47 | C5G A12U A28U U44G G94A G117U A147G | ≤ -4.2
48 | U4G C27U A29C U53A C54U G88A C125A | ≤ -4.2
49 | C5G A22G C103G A110U G143C A150G | ≤ -4.2
50 | C5A A22U C75U C76A G88A A89C A91G C105U A119G U144G | ≤ -4.2
51 | U4G A37C G48A C93A | ≤ -4.2
52 | C5G C27U U45G C95U U101C C118A | ≤ -4.2
53 | U4G C8U A40C A49U G92U A106G G140C | ≤ -4.2
54 | C5A C35U A66G G74A C79A G83U C85A C95A U102G U104G | ≤ -4.2
55 | C5A C8A C10U G48A G58C U78G C95A | ≤ -4.2
56 | C5G C10U A12U U31A C35U A41C C75A C108U A110G C114U C125A U135G | ≤ -4.2
57 | C5G G59C G71A U102A A115G C123U | ≤ -4.2
58 | C5G C75U C85A G94A C99A C123A G143U | ≤ -4.2
59 | C5G A12C U61A C95U C125G A142C | ≤ -4.2
60 | C5A C75G C79A U82G G86A A106C C149G | ≤ -4.2
61 | C5A C10G A89U U134C A137U A147U A150U | ≤ -4.2
62 | U4G A22U C43G C51U C54U G67C U134C U135G G141U | ≤ -4.2
63 | U4C U7A A23C A49G C96G A107C U111G | ≤ -4.2

Row | Variant | polymerase ribozyme fitness (log ratio)
64 | C5A G11A G84A C95A C103U C116U | -1.5
65 | U4G C27U C43U G68C A89G G92A U151A | ≤ -4.2
66 | C5G G50U G81C G92C G143A | -2.74
67 | C5A C57A A119U A137G U146G | -2.37
68 | U4G A17C A47C C69G G86U G88U C105U G140U | ≤ -4.2
69 | C5A A28U | -3.92
70 | U4G A24G A26C C38U C54G G58A A60C G71U G92C | ≤ -4.2
71 | C5G C54G G70U U77G G84U C132U | ≤ -4.2
72 | C5A C87A C149A | ≤ -4.2
73 | U4G A20C G88A G141C | ≤ -4.2
74 | C5A A30C G94U G117U U135G G136A | ≤ -4.2
75 | U4C U9A U15A A22U U33G C36A G83A U127G | ≤ -4.2
76 | C5A C27A C87A U109A G126A | ≤ -4.2
77 | C5A A64U G67A A97U A120U A121G C149G | ≤ -4.2
78 | U4G A40G C51U C85A G136U | ≤ -4.2
79 | C5G A41C G50C U55A C85G | ≤ -4.2
80 | C5A C51U G68A C96U G143C | ≤ -4.2
81 | C5G G48C U77A C85A G100A C103G C125A | ≤ -4.2
82 | C5A A39C G83A U102C A106U G124U U127G C131G | ≤ -4.2
83 | C5A A66G C96U A115G U139G G140A | ≤ -4.2
84 | U4G C14U A52G C85G G133U | ≤ -4.2
